Reference: PubChem BioAssay AID1508624 (National Center for Advancing Translational Sciences (NCATS), 2021)
Hit rate of the full screen: of about 48,000 compounds, about 120 (0.25%) were called active. Inconclusive results (about 4%) are left out. Calls come from the whole dose curve; as a rule, active = well fitted activation curve with a large enough effect; inconclusive = small, poorly fitted or top-dose-only effect, or another doubt; inactive = no such curve, though single readings can be large or run the other way. This is one part of the list.

assay: Primary qHTS for Identification of Small Molecule Activators of Huntingtin-Antisense Promoter Activity; settings: HEK293 HTT-AS promoter firefly luciferase reporter, 24 h; series mostly up to 57.5 µM; activity change, positive = activation: at the top concentration; note: nearly all actives have a fitted effect of over 55% in size
Procedure, shortened: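 Quantitative HTS used concentration series of up to 57.5 uM final on HEK293 luciferase reporter cells, 24 h at 37 degrees C. Readout was Dual-Glo firefly luminescence.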
Potency is the fitted concentration of half-maximal effect.

Activity change, positive = activation, inactive:
CCCNC(=O)CN1CCN(c2ccc(NC(=O)c3ccc(OC)cc3)cc2C(=O)O)CC1 0%, Cc1ccccc1C(=O)N1CCC(C(=O)Nc2ccc(F)cc2F)CC1 12.5%, Cc1nc(N2CCOCC2)c2c(C(=O)N3CCN(c4ccccc4)CC3)c(C)oc2n1 0.994%, CCOC(=O)c1cccc(NC(=O)NC(C)c2c(-n3cccc3)sc3c2CCN(C)C3)c1 (configuration not stated) -23.6%, Cc1cc2c(cc3c(SCC(=O)Nc4ccc(Cl)cc4F)nncn32)o1 -11%, Cc1ccc2c(c1)c1c3n2CCN(C(=O)c2cccc(C(F)(F)F)c2)C3CCC1 (configuration not stated) -32%, CCc1cccc(C)c1Nc1c(-c2ccsc2)nc2ncccn12 -25.6%, Cc1ccc(C)c(Cn2c3ccccc3c3cnn(CC(=O)NCCc4ccccc4)c(=O)c32)c1 3.3%, COc1ccc(N2CCN(Cc3nnc(-c4ccc5c(c4)OCO5)o3)CC2)cc1 1.53%, Cc1cccc(CNC(=O)CCCN2C(=O)CCn3nc(-c4cccn4C)cc32)c1 9.28%, Cc1ccc(-n2nc(C)c3nc(CCC(=O)Nc4cccc(F)c4)c(=O)n(C)c32)cc1 -4.03%, COc1ccc2c(c1)c(CC(=O)OCC(=O)O)c(C)n2C(=O)c1ccc(Cl)cc1, COc1ccc(CNC(=O)C2CCCN(c3nnc(C)c4c(C)n(-c5ccc(C)cc5)nc34)C2)cc1 (configuration not stated) -18.2%, CCOc1c(Cl)cc(C(=O)N(Cc2ccc(N(C)C)cc2)Cc2ccco2)cc1Cl -12%, CCC1CN(C(=O)N2CCC(C(=O)N3CCN(c4ccccc4F)CC3)CC2)c2ccccc2O1 (configuration not stated) -32.3%, CCC(Sc1nc2ncccc2o1)C(=O)Nc1ccc(OC)c(OC)c1 (configuration not stated) -1.47%, Cc1ccc2c(=O)cc(C(=O)Nc3sc4c(c3C(=O)NCC3CCCO3)CCCC4)oc2c1 (configuration not stated) 10.9% [at 11.5 µM, percent change from vehicle, -100% = no light], COc1ccc(C2CC(=O)c3cc(-c4nc(-c5cccc(Cl)c5)cs4)c(=O)[nH]c3C2)cc1 (configuration not stated) -8.78%, CSc1oc(-c2cccs2)nc1S(=O)(=O)c1ccc(Br)cc1 -8.98%, O=S(=O)(c1ccc(Cl)cc1Cl)n1ccnc1 -3.38%, CCOc1ccccc1N(C)C(=O)c1c2c(nc3ccccc13)C(=O)N(C1CCCCC1)C2 -17%, CC(C)CCn1c(=O)c2cccnc2n(CC(=O)Nc2ccccc2F)c1=O -26.6%, Cn1c2ccccc2c2cnn(CC(=O)Nc3ccccc3F)c(=O)c21 -9.03%, COCCc1ccc(OCC2CO2)cc1 (configuration not stated) 2.97%, Cc1cc(C)cc(NC(=O)c2c(C)oc3nc(C)nc(N4CCCC4)c23)c1 -4.52%, CCOc1ccc(Nc2nn(-c3ccc(OC(F)(F)F)cc3)nc2C(C)=O)cc1 -12.9%, COc1cccc(Cn2c(-c3nonc3NC(C)=O)nc3ccccc32)c1 -40.9%, COc1ccccc1CNC(=O)CCNS(=O)(=O)c1ccc2c(c1)oc(=O)n2C -3.32%, CC(=O)OC[C@H]1O[C@@H](OC(C)=O)[C@H](OC(C)=O)[C@@H]1OC(C)=O 1.93%, CNC(=O)c1ccc2c(c1)N(Cc1ccccc1Cl)C(=O)c1ccccc1S2 -26.7%, O=C(COc1ccc(F)cc1)NCc1ccc2c(c1)CCN2C(=O)c1ccccc1 9.66%, Cc1cccc(NC(=O)c2sc3nc(-c4cc5ccc(O)cc5oc4=O)[nH]c(=O)c3c2C)c1 -21.2%, O=C(Cn1c(=O)nc(-c2ccccc2F)c2cc(Cl)ccc21)NCCCc1ccccc1 -16.2%, CC(=O)OC1C(C)OC(Oc2c(-c3ccc(O)cc3)oc3cc(O)cc(O)c3c2=O)C(O)C1OC(C)=O (configuration not stated) 2.07%, COc1ccc2cc3[n+](cc2c1OC)CCc1cc2c(cc1-3)OCO2, Cc1cc(C)cc(NC(=O)C2CC(=O)N(c3ccccc3)C2)c1 (configuration not stated) 9.9%, O=C(Nc1sc2c(c1C(=O)NCC1CCCO1)CCCC2)c1cc(=O)c2ccccc2o1 (configuration not stated) 2.02%, O=C(CCn1c(=O)c2sccc2n(Cc2ccc(F)cc2Cl)c1=O)NCc1ccc2c(c1)OCO2 -2.96%, Cc1ccc(-c2nc3ccccc3o2)cc1NC(=O)Cc1ccc(Cl)cc1 -0.133%, COc1cc2c(cc1Cc1cccc(Cl)c1F)c(=O)c(C(=O)O)cn2[C@H](CO)C(C)C -30.6%, Cc1cccc(-c2nc(CN3CCCC(C(=O)NCCc4ccc(Cl)cc4)C3)c(C)o2)c1 (configuration not stated) -46.4%, COC(=O)c1ccccc1NC(=O)CSc1nc(C)c(Cl)c(C)c1C#N 3.8%, Cc1ccc(-c2cc(C(=O)Oc3ccc(C#N)cc3)no2)cc1C 18.2%, CCCCCCCCCCOCC(O)CN (configuration not stated) -11.8%, Cc1ccc2c(c1)c1c(c(=O)n(Cc3ccccc3)c(=O)n1CC(=O)Nc1ccccc1F)n2C -5.22%, Cc1cc(-c2ccc(C)c(S(=O)(=O)NCC3CCN(Cc4ccccc4F)CC3)c2)on1 -7.83%

Potency, active:
CCc1ccc(OCC(=O)Nc2ncn[nH]2)c(Br)c1 25.1 µM
